# Laboratory results taken from the supplement of paper PMC4604168 (melanoma cell lines).
# The other results are listed elsewhere or left out. Most values come without repeats; read them as rough.
# Columns and labels:
# Experiment in all cases: cell count relative to DMSO control; melanoma cells; higher = more viable cells
# Conditions in all cases: library dose: low library concentration; 72 h
# MZ2-MEL = tested on: MZ2-MEL
# MeWo = tested on: MeWo
# RPMI7951 = tested on: RPMI7951
# RVH-421 = tested on: RVH-421
# SkMel28 = tested on: SkMel28
# SkMel2 = tested on: SkMel2
# SkMel30 = tested on: SkMel30
# SkMel5 = tested on: SkMel5
# UACC257 = tested on: UACC257
# UACC62 = tested on: UACC62
# WM115 = tested on: WM115
# WM1716 = tested on: WM1716
# WM1745 = tested on: WM1745
# WM3526 = tested on: WM3526
# WM3619 = tested on: WM3619
# WM451Lu = tested on: WM451Lu
# 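Note: cell number obtained by counting DAPI-stained nuclei in high-throughput microscope images with image analysis software, screen run in 1,536-well plates.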
Compound,cell count (MZ2-MEL),cell count (MeWo),cell count (RPMI7951),cell count (RVH-421),cell count (SkMel28),cell count (SkMel2),cell count (SkMel30),cell count (SkMel5),cell count (UACC257),cell count (UACC62),cell count (WM115),cell count (WM1716),cell count (WM1745),cell count (WM3526),cell count (WM3619),cell count (WM451Lu)
"O=C(O)c1ccc2c(c1)nc(Nc1cccc(Cl)c1)c1ccncc12 + O=C(O)C(=O)Nc1sc2c(c1C(=O)O)CCNC2 [TCS401] (first compound 0.4 µM, partner dose 1.66667 µM)",86.3%,101%,102%,108%,89.3%,101%,91%,104%,70.9%,96.2%,107%,97.4%,89.3%,88.3%,107%,91.5%
"O=C(Nc1cc(C(F)(F)F)cc(C(F)(F)F)c1)c1cc(Cl)ccc1O + CC(C)(C)c1cnc(CSc2cnc(NC(=O)C3CCNCC3)s2)o1 [SNS-032] (first compound 0.016 µM, partner dose 0.01 µM)",102%,106%,92.8%,104%,93.5%,103%,81.2%,116%,81%,88%,104%,97.7%,89.5%,132%,97.6%,106%
"Cn1nnc2c(C(N)=O)ncn2c1=O [temozolomide] + NC(=O)Nc1cc(-c2cccc(F)c2)sc1C(=O)N[C@H]1CCCNC1 [AZD7762] (first compound 2 µM, partner dose 0.02 µM)",91.2%,114%,115%,122%,106%,122%,63.3%,105%,117%,80.8%,85.6%,92%,97.3%,92.2%,51%,119%
"O=C(O)c1ccc2c(c1)nc(Nc1cccc(Cl)c1)c1ccncc12 + CN(NC(=O)CC(=O)NN(C)C(=S)c1ccccc1)C(=S)c1ccccc1 [STA4783] (first compound 0.4 µM, partner dose 0.006 µM)",107%,101%,112%,93%,115%,100%,94.5%,122%,101%,107%,111%,75.6%,60.9%,92.5%,80.5%,97%
"Cc1cc(N2CCOCC2)cc2[nH]c(-c3c(NC[C@@H](O)c4cccc(Cl)c4)cc[nH]c3=O)nc12 + Cn1cncc1[C@@](N)(c1ccc(Cl)cc1)c1ccc2c(c1)c(-c1cccc(Cl)c1)cc(=O)n2C [tipifarnib] (first compound 0.2 µM, partner dose 0.01 µM)",89.6%,81.6%,85.9%,94%,93.6%,76%,92.1%,97.2%,53.3%,59.8%,84.1%,72.7%,79.7%,78.5%,97.3%,87%
"O=C(O)c1ccc2c(c1)nc(Nc1cccc(Cl)c1)c1ccncc12 + Cc1cc(N2CCOCC2)cc2[nH]c(-c3c(NC[C@@H](O)c4cccc(Cl)c4)cc[nH]c3=O)nc12 [BMS536924] (first compound 0.4 µM, partner dose 0.2 µM)",96.5%,88.7%,117%,103%,92%,91.5%,67.7%,103%,87.2%,109%,125%,92.9%,82%,91.6%,82.1%,101%
"O=C(O)[C@@H]1[O][Sb](=[O])([O][Sb]2(=[O])[O][C@H]([C@H](O)CO)[C@H](O)[C@H](C(=O)O)[O]2)[O][C@H]([C@H](O)CO)[C@@H]1O (stereo partly drawn) [stibogluconate] + NCC(=O)Nc1ccc(-n2nc(C(F)(F)F)cc2-c2ccc3c(ccc4ccccc43)c2)cc1 [OSU03012] (first compound 2 µM, partner dose 1 µM)",98.4%,72.2%,111%,95.2%,85.5%,99.4%,65.8%,88.8%,115%,101%,88.6%,90.5%,99.5%,67.9%,100%,79.8%
"O=C(O)[C@@H]1[O][Sb](=[O])([O][Sb]2(=[O])[O][C@H]([C@H](O)CO)[C@H](O)[C@H](C(=O)O)[O]2)[O][C@H]([C@H](O)CO)[C@@H]1O (stereo partly drawn) [stibogluconate] + O=C(CCCCCCC(=O)Nc1ccccc1)NO [vorinostat] (first compound 2 µM, partner dose 0.08 µM)",104%,89.4%,116%,112%,73.6%,103%,110%,107%,102%,91.6%,106%,120%,5.84%,103%,88.1%,89.4%
"O=C(Nc1cc(C(F)(F)F)cc(C(F)(F)F)c1)c1cc(Cl)ccc1O + COc1ccc(COc2ccc(Cc3cnc(N)nc3N)cc2OC)cc1 [GW2580] (first compound 0.016 µM, partner dose 1 µM)",92.8%,115%,92.9%,98.3%,93.9%,110%,104%,78.8%,98.9%,88.3%,107%,120%,121%,104%,88.3%,87.1%
"O=C(Nc1cc(C(F)(F)F)cc(C(F)(F)F)c1)c1cc(Cl)ccc1O + C[C@@H]1CCN(C(=O)CC#N)C[C@@H]1N(C)c1ncnc2[nH]ccc12 [CP690550] (first compound 0.016 µM, partner dose 1 µM)",95.9%,94.6%,98.9%,136%,115%,94.3%,119%,91.8%,98.4%,101%,97%,101%,92.6%,113%,88.3%,109%
"O=C(O)[C@@H]1[O][Sb](=[O])([O][Sb]2(=[O])[O][C@H]([C@H](O)CO)[C@H](O)[C@H](C(=O)O)[O]2)[O][C@H]([C@H](O)CO)[C@@H]1O (stereo partly drawn) [stibogluconate] + O=c1cc(-c2cccc3c2Sc2ccccc2S3)oc(N2CCOCC2)c1 [KU55933] (first compound 2 µM, partner dose 1 µM)",97.7%,98.6%,114%,120%,97%,92.5%,98.3%,89.2%,93.9%,104%,93.7%,85.9%,95.4%,88.8%,83.8%,111%
"O=C(O)[C@@H]1[O][Sb](=[O])([O][Sb]2(=[O])[O][C@H]([C@H](O)CO)[C@H](O)[C@H](C(=O)O)[O]2)[O][C@H]([C@H](O)CO)[C@@H]1O (stereo partly drawn) [stibogluconate] + CC(C)CCN1c2nc(Nc3cc(F)c(O)c(F)c3)ncc2N(C)C(=O)C1C [BID1870] (first compound 2 µM, partner dose 0.2 µM)",110%,110%,103%,136%,104%,98.2%,94.8%,105%,89.2%,88.7%,98.1%,111%,112%,113%,105%,92%
"O=C(O)c1ccc2c(c1)nc(Nc1cccc(Cl)c1)c1ccncc12 + O=S(=O)(c1ccccc1)N(CC(F)(F)F)c1ccc(C(O)(C(F)(F)F)C(F)(F)F)cc1 [T0901317] (first compound 0.4 µM, partner dose 1.4 µM)",86.1%,80.5%,99%,110%,89.2%,89.8%,102%,98.2%,85.6%,68.9%,86.7%,71.3%,88.8%,62.4%,99%,88.6%
"O=C(O)[C@@H]1[O][Sb](=[O])([O][Sb]2(=[O])[O][C@H]([C@H](O)CO)[C@H](O)[C@H](C(=O)O)[O]2)[O][C@H]([C@H](O)CO)[C@@H]1O (stereo partly drawn) [stibogluconate] + NC(=O)Nc1cc(-c2cccc(F)c2)sc1C(=O)N[C@H]1CCCNC1 [AZD7762] (first compound 2 µM, partner dose 0.02 µM)",100%,103%,94.4%,88.8%,93.7%,111%,101%,111%,110%,104%,96.6%,74%,100%,104%,79.8%,85%
"O=C(Nc1cc(C(F)(F)F)cc(C(F)(F)F)c1)c1cc(Cl)ccc1O + COc1cc(N2CCC(N3CCN(C)CC3)CC2)ccc1Nc1ncc(Cl)c(Nc2ccccc2S(=O)(=O)C(C)C)n1 [NVP-TAE684] (first compound 0.016 µM, partner dose 0.08 µM)",97.1%,94.5%,88.8%,91.6%,81.3%,90.7%,82.1%,87.7%,78.8%,85.1%,90.6%,98.3%,78.8%,84.9%,82.7%,90.5%
"O=C(Nc1cc(C(F)(F)F)cc(C(F)(F)F)c1)c1cc(Cl)ccc1O + Oc1nc(-c2ccc(C(F)(F)F)cc2)nc2c1CSCC2 [XAV939] (first compound 0.016 µM, partner dose 2 µM)",99.9%,91.2%,104%,109%,86.9%,102%,107%,97.8%,81.6%,94.9%,96.7%,54.7%,101%,92.8%,138%,91.4%
"O=C(O)[C@@H]1[O][Sb](=[O])([O][Sb]2(=[O])[O][C@H]([C@H](O)CO)[C@H](O)[C@H](C(=O)O)[O]2)[O][C@H]([C@H](O)CO)[C@@H]1O (stereo partly drawn) [stibogluconate] + O=C1NC(=O)/C(=C/c2ccc(-c3ccc(F)cc3O)o2)S1 [AS252424] (first compound 2 µM, partner dose 1 µM)",93.1%,98.1%,82.8%,117%,102%,101%,83.7%,107%,109%,105%,101%,96.3%,86.4%,94%,94.9%,144%
"O=C(O)[C@@H]1[O][Sb](=[O])([O][Sb]2(=[O])[O][C@H]([C@H](O)CO)[C@H](O)[C@H](C(=O)O)[O]2)[O][C@H]([C@H](O)CO)[C@@H]1O (stereo partly drawn) [stibogluconate] + CCN(CC)CCCCNc1ncc2cc(-c3cc(OC)cc(OC)c3)c(NC(=O)NC(C)(C)C)nc2n1 [PD173074] (first compound 2 µM, partner dose 0.1 µM)",93.9%,101%,99%,107%,113%,96.7%,94.6%,105%,98.5%,104%,114%,103%,98.7%,97.8%,109%,111%
